The values below come from PMC6212790.

This is one part of the list. At the low end of the ranking, values are background and their order means little.

The target in this experiment is T1, GST-Rok (full length) (UniProt O34857).
T1 sequence: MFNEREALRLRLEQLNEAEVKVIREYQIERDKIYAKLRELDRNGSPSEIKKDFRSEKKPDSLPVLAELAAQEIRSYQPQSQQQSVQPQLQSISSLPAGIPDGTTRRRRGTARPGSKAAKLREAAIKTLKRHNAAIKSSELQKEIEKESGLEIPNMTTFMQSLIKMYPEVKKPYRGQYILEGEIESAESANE
Briefly: protein binding microarray.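 Also: rank score from −0.5 (least bound) to 0.5 (best bound).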 The settings on record: Rok is a gene silencer of Bacillus subtilis; high values mean tight binding; most listed sequences are background and not binding sites; double strand, one strand shown.
Turning to TACTCCTA, the binding signal worked out at 0.126 E-score. For ACGTCCGA the value was -0.0091 E-score; for TAAGGAGA, -0.0803 E-score.

For CACGCCGA, the binding signal is -0.14 E-score. TAGGAGCA: the binding signal was -0.0731 E-score. The value for CCTGCCCG was -0.33 E-score. For AAAGGCGA the value was -0.11 E-score; for GGTCCTAA, -0.0696 E-score. AAGCCTCG had a binding signal of -0.187 E-score. For AAACGTGC the value was 0.127 E-score. For the sequence AGCCCCAC, the binding signal was -0.388 E-score. The value for AACGAATC was 0.137 E-score; that for GGTTTTAC was 0.16 E-score; that for CTACGTAC was 0.231 E-score.

In the case of AAGGGAAC, the binding signal is -0.093 E-score.

CCGAAGCG: the binding signal is -0.105 E-score.

Sequence ATGACAAG displayed a binding signal of 0.0668 E-score.

ACCCAATA returned a binding signal of 0.213 E-score. The value for GAGTCCGC was -0.132 E-score; that for AGTTCCGC was -0.0507 E-score. In turn, GACTGGTA had a binding signal of 0.199 E-score.

Consider GACAAGCC, for which the binding signal was -0.225 E-score. The value for GTGGGACA was -0.0885 E-score. The value for AGTTGCTC was 0.000305 E-score; that for ATCGAAAG was -0.178 E-score. The value for ATTCAGTC was -0.00892 E-score; that for AACTGCGC was -0.145 E-score.

In turn, TAAATATA yielded a binding signal of 0.394 E-score.

Consider CGTGGGAA, for which the binding signal is -0.173 E-score. The value for GACTTGGA was -0.00876 E-score. Take TTCGGCAA: the binding signal came out at 0.0314 E-score. GGAAAGCC had a binding signal of -0.374 E-score. For AAATCCCT the value was -0.15 E-score. For AAGAAACA the value was 0.223 E-score; for CGCTCACA, -0.126 E-score; for AATCAACC, -0.107 E-score. For ACCCTGAT the value was -0.101 E-score; for CTGTATTC, -0.166 E-score. In turn, GTTCTAAA registered a binding signal of 0.0339 E-score. The value for GCACTAGA was 0.0932 E-score. The value for ATGCAGAA was 0.23 E-score; that for CCACGACA was -0.123 E-score; that for TCACCGGA was -0.108 E-score. For GACCAGTA the value was 0.0441 E-score; for ACCAAATG, 0.056 E-score.

AGAATCGG came in with a binding signal of 0.137 E-score.

Sequence CTAGGACA came in with a binding signal of 0.0648 E-score. The value for ACAGAAGT was 0.256 E-score; that for AGGGATAT was 0.0895 E-score; that for CCGAACTA was 0.282 E-score. For TAAATGGA the value was 0.119 E-score; for GCATGCAA, -0.0106 E-score. For ACGGATAC the value was -0.0801 E-score. The sequence AGGCCGGA registered a binding signal of -0.156 E-score. The value for GGCGTAAA was 0.0698 E-score; that for ATACAGCC was -0.206 E-score; that for GAAGTAAC was 0.0804 E-score. In turn, CATTAAAC came in with a binding signal of -0.0768 E-score.

Sequence CTGGCCAA returned a binding signal of -0.218 E-score. For ACCTACCG the value was 0.169 E-score; for ATTAGCTG, 0.209 E-score; for AAAACGAT, 0.0449 E-score. The value for CGTCTCGA was -0.22 E-score; that for AAGTTCTC was -0.0181 E-score; that for TAATTCGA was 0.133 E-score.

For the sequence AGCGAGTG, the binding signal was -0.0883 E-score.

GAGTAAAA: the binding signal came to 0.218 E-score. Sequence CGCTAGGC had a binding signal of -0.229 E-score. For GACTCTGC the value was -0.222 E-score; for GCCAGTAA, -0.224 E-score; for GTTAGTAA, 0.272 E-score. In turn, ATCCACGA returned a binding signal of 0.114 E-score. The value for CCAAGTGA was -0.0973 E-score. The value for CAGTGATA was 0.201 E-score; that for TCACCCGA was -0.192 E-score. The sequence CTCGAAAA gave a binding signal of 0.0714 E-score. The sequence ACAATAGG displayed a binding signal of 0.215 E-score. For ATTTTGAG the value was 0.155 E-score; for GAAAACCC, -0.322 E-score; for ACCTAACC, -0.0826 E-score.

Sequence CTTTTGTA had a binding signal of 0.222 E-score. For CAGAATAC the value was 0.04 E-score; for CAAAGTGG, -0.0503 E-score; for CCCGACCC, -0.344 E-score. The sequence CTGCTGGC gave a binding signal of -0.24 E-score. In turn, GAGCGCAA yielded a binding signal of -0.142 E-score. Turning to GTTATAGA, the binding signal turned out to be 0.11 E-score. The sequence CTAAATCA yielded a binding signal of 0.0987 E-score. GACAGCAC showed a binding signal of -0.051 E-score. The value for CTGGGTTC was -0.0092 E-score; that for GAAGCCAC was -0.149 E-score; that for AAACGGTT was 0.0553 E-score. Sequence GTATGCGA came in with a binding signal of -0.0103 E-score. Consider CAGTAGCC, for which the binding signal came to 0.0096 E-score. For CTACGACA the value was 0.137 E-score; for CCGACAAA, -0.149 E-score. The value for AGGGTCAG was -0.126 E-score; that for CAACGCTC was -0.322 E-score. For GGGGAAAC the value was -0.0869 E-score; for GCGCCCAA, -0.217 E-score. On to CCTGGTTC, for which the binding signal is -0.322 E-score. The value for ACCACGTC was -0.22 E-score; that for CGTCAGGC was -0.107 E-score; that for ACTTCTGG was -0.00484 E-score. For AGGTACAG the value was 0.118 E-score; for CATCAGCC, -0.239 E-score; for AGACCTAC, -0.174 E-score. For CCTCTAGC the value was -0.192 E-score.

Take CTGAGACC: the binding signal is -0.26 E-score. The value for CTAGACGA was 0.00484 E-score; that for CCGCACGG was -0.234 E-score; that for GACATTAC was 0.194 E-score. For CATGTCCC the value was -0.34 E-score; for CGGCCTAA, -0.179 E-score; for CAACGAAG, 0.0144 E-score. For ACCACTGA the value was 0.093 E-score; for GAAACGAC, -0.132 E-score. In turn, GGTATTCA had a binding signal of -0.0162 E-score. For ATGCCCCG the value was -0.0941 E-score.

In turn, CCTAGAGA displayed a binding signal of -0.145 E-score. The value for GCCATGCA was -0.3 E-score. ACTCCAGT returned a binding signal of 0.0434 E-score.

In turn, AATGGGTG registered a binding signal of 0.102 E-score. The value for CACTTACA was 0.102 E-score. For AAGATGCG the value was 0.0484 E-score; for AATTTTTG, 0.102 E-score. For GTTCTAGA the value was 0.163 E-score; for CTGACAAC, 0.0564 E-score. Turning to CAGGTCGA, the binding signal is -0.0198 E-score.

Sequence CCAATTGG yielded a binding signal of -0.0925 E-score. For CGCCACCA, the binding signal is -0.214 E-score.

GATTACCA gave a binding signal of 0.138 E-score. The value for GCGTAATA was 0.27 E-score.

Turning to CTGCCGAA, the binding signal is -0.156 E-score.

With CTTACCTA, the binding signal was 0.115 E-score. For the sequence GGTCAACA, the binding signal was -0.0732 E-score. CTTGTCTA came in with a binding signal of -0.00192 E-score. The value for CTCCAAAC was -0.0323 E-score.

Sequence CTCTACCA gave a binding signal of 0.109 E-score.

In turn, GATCCAGA returned a binding signal of 0.0609 E-score. For ACATTAGT the value was 0.305 E-score; for CCCATTTC, 0.00645 E-score.

GAGGCTAC had a binding signal of -0.278 E-score. For GTGGACAC, the binding signal is -0.27 E-score. Sequence AGCCATGA registered a binding signal of -0.0278 E-score. In turn, GAAACCGA gave a binding signal of -0.119 E-score.

The sequence TATATTGA showed a binding signal of 0.278 E-score. For CGGGGAGC the value was -0.398 E-score. The value for AGGCCCAC was -0.421 E-score; that for ACTGCACG was 0.0331 E-score.

TACTTATA had a binding signal of 0.321 E-score.

Consider ACTCTAAC, for which the binding signal was 0.13 E-score.

As to AGTCTGAG, the binding signal worked out at 0.0409 E-score. For GACAGTAA the value was 0.135 E-score; for AGCCGTTA, 0.171 E-score. AGTAACAA gave a binding signal of 0.117 E-score. Consider CGGCCTGA, for which the binding signal is -0.2 E-score. Sequence TAACATTA displayed a binding signal of 0.321 E-score.

With CAAGAGGG, the binding signal was -0.294 E-score. The value for ACTGAATA was 0.168 E-score; that for ACAAGCAA was 0.046 E-score. The value for CATGATGA was 0.0688 E-score; that for GCGAGCTA was 0.182 E-score; that for AAGGAAAC was -0.199 E-score.

ACTAGATC showed a binding signal of 0.327 E-score. In turn, TCTGGCAA showed a binding signal of -0.15 E-score. ACATCGAG showed a binding signal of 0.125 E-score.

In the case of ATAGTTAA, the binding signal came out at 0.329 E-score. The value for ACCTGCGG was -0.172 E-score; that for AGTATCGG was 0.0403 E-score. For GACCGATA the value was 0.00594 E-score; for GAGTGGAA, -0.253 E-score.
